From publication PMC9817974, “Pharmacokinetic Basis for Using Saliva Matrine Concentrations as a Clinical Compliance Monitoring in Antitumor B Chemoprevention Trials in Humans” (Cancers, 2022)
Read-outs that look alike come from different tables or passages of the source.

Legend:
[1] = Population compartmental PK co-model of plasma and saliva matrine (Model C); type: in vivo, human; conditions: for Km: plasma and saliva, 2400 mg
Description: The population PK model was developed using plasma and saliva concentrations of 8 healthy participants in the study. No input was made for the missing data points. Initial estimates of individual compartmental PK parameters were derived from non-compartmental analysis. Different compartmental PK models were tested to describe the plasma and saliva PK profiles of Matr. The population pharmacokinetic compartmental models using actual dosing and sampling times were built using Phoenix NLME 8.2. and goodness-of-fit was determined. More details of PK modeling are described in Supplementary Material S3 Section S3.
Model A has two compartments plasma and saliva, while a tissue compartment was added to Model B and Model C. A direct absorption to the saliva compartment was added in Model C (Figure 4) to account for the reabsorption of drug excreted in the saliva from the oral cavity and the intestine, thereby entering the recycling process (Figure 5).
S3. Compartmental Pharmacokinetic Co-modeling
The population PK model was developed using plasma and saliva concentrations of 8 healthy
participants in the study.
in blood sampling, no input was made for the missing data points. Initial estimates of individual
compartmental PK parameters were derived using WinNonlin® version 8.2. The concentration of
matrine in plasma and saliva were fitted simultaneously. Actual dosing and sampling times were
used for the compartmental modeling. Different compartmental PK models were tested to describe
the concentration of matrine in plasma and saliva compartments (Fig 7 in the main manuscript).
A1 = - (Cl_p * C) + (Aa * Ka)- (Vmax * C / (C + Km))- (A1 * K13) + (A2 * Ksp)
Aa = - (Aa * Ka)- (Aa * K_a2)
A2 = (Vmax * C / (C + Km))- (CL_s * Cs) + (A3 * Kts)- (A2 * Ksp) + (Aa * K_a2)
A3 = (A1 * Kpt)- (A3 * Kts)
The population pharmacokinetic compartmental models using actual dosing and sampling
times were built using Phoenix NLME 8.2. To determine the best fit pharmacokinetic model
structure, model selection and identification of variability were based on minimizing the Akaike
Information Criteria (AIC) and the log-likelihood values (-2LL), achieving adequate parameter
precision, inspection of goodness-of-fit plots and by comparison of the quality of fit plots (such as
observed vs. fitted data, weighted residual vs. fitted data, weighted residual vs. time).

[2] = Pilot study, intravenous infusion of Matr in F344 rats, salivary excretion; type: in vivo
[3] = set-up: method as in ApexBio website [16]; conditions: ref ApexBio website [16]; cited from earlier work
[4] = tested on: Caco-2; set-up: method as in Yang et al. [15]; conditions: ref Yang et al. [15]; cited from earlier work
[5] = 2.8 mg/kg i.v.; cited from earlier work
[6] = set-up: method as in Yang et al. [15]; conditions: 2.0 mg/kg i.v.; ref Yang et al. [15]; cited from earlier work
[7] = tested on: CYP or UGT enzymes; set-up: method as in PMID 20034755; conditions: cited from earlier work
[8] = patients; reported, used for power calculation; no reference given; cited from earlier work

O=C1CCC[C@@H]2[C@H]3CCCN4CCC[C@@H](CN12)[C@@H]34 [matrine]
Ka (absorption rate constant to the central compartment) ([1]; Model C estimate): 1.66 ± 0.27 h⁻¹ | Kas (absorption rate constant to the salivary compartment) ([1]; Model C estimate): 0.39 ± 0.14 h⁻¹ | Kpt (first-order rate constant plasma to tissue) ([1]; Model C estimate): 0.11 ± 0.02 h⁻¹ | Ksp (first-order rate constant saliva to plasma) ([1]; Model C estimate): 1.25 ± 0.28 h⁻¹ | Kts (first-order rate constant tissue to saliva) ([1]; Model C estimate): 23.42 ± 2.33 h⁻¹ | Tlag ([1]; Model C estimate): 0.44 ± 0.01 h | Vmax (maximum velocity of drug transfer rate, plasma to saliva) ([1]; Model C estimate): 11.88 ± 1.27 mg/h/kg | Vs (volume of distribution of the saliva compartment) ([1]; Model C estimate): 0.02 ± 0.01 L/kg | CL/F ([1]; both sexes, human, plasma, oral, 2400 mg ATB, Model C estimate, read-out: CLp (apparent clearance of plasma) (converted)): 0.333 mL/min/kg | Vd ([1]; both sexes, human, plasma, oral, 2400 mg ATB, Model C estimate, read-out: Vp (volume of distribution of the plasma compartment)): 1.42 ± 0.08 L/kg | Km ([1]; human, oral, Model C estimate converted from mg/L, read-out: Km of transport from plasma to saliva): 1130 µM | Km ([1]; human, oral, Model C estimate, read-out: Km (substrate concentration at half maximal transfer rate, plasma to saliva)): 280 ± 5.73 µg/mL | time to salivary excretion [2]: ≤ 15 min | Solubility at pH 7.4 [3]: 50.00 mg/mL | Peff (Caco-2) [4]: 42.5 ×10⁻⁶ cm/s | AUC0-T Mice Observed [5]: 5131.1 ng·h/mL | AUC0-T Rats Observed [6]: 1717.6 ng·h/mL | metabolism by CYP or UGT enzymes [7]: not metabolized by CYP or UGT enzymes | inter-individual variance of clearance (average) [8]: 70% | inter-individual variance of clearance (range) [8]: 60–83%
